From the supplement of paper PMC9135407
Several values for one entry are separate records, joined by “and”; a condition that tells them apart may be missing. Equal values may be shown once. Where a name gives a salt, the structure may show the parent alone. The whole screen tested about 5,800 compounds, of which about 620 (11%) showed activity.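 How the source made its calls: active = score above a cut-off or among the top three wells of a plate; in these data no inactive exceeds 0.85.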 This is a selection; strong and weak results do not stand in their true shares.

System: primary human hepatic stellate cells (donor 1)
Experiment: scaled lipid accumulation score (0 = DMSO-like, 1 = nortriptyline-like); higher = stronger HSC inactivation (lipid re-accumulation), active = hit call of the paper
Conditions: 48 h
[1] = library stock concentration: 10 mM
[2] = library stock concentration: 3.33 mM
[3] = library stock concentration: 1 mM

SMILES: CCCCCCCCCCCCCC(=O)O[C@@H]1[C@@H](C)[C@@]2(O)[C@@H](C=C(CO)C[C@]3(O)C(=O)C(C)=C[C@@H]23)[C@@H]2C(C)(C)[C@]12OC(C)=O [Phorbol 12-myristate 13-acetate]
- scaled lipid accumulation score (library stock concentration: 8.1 mM): active: 0.934

SMILES: C[C@]12CCC(=O)C=C1C=C[C@@H]1[C@@H]2CC[C@@]2(C)[C@H]1CC[C@@]2(O)CCC(=O)O [Canrenoic acid potassium salt]
- scaled lipid accumulation score: inactive: ≤ 0

SMILES: C[C@]12CCC(=O)C=C1C=C[C@@H]1[C@@H]2CC[C@@]2(C)[C@H]1CC[C@@]2(O)CCC(=O)O [Canrenoic acid, potassium salt]
- scaled lipid accumulation score (library stock concentration: 5 mM): inactive: ≤ 0
- scaled lipid accumulation score [1]: inactive: ≤ 0

SMILES: NC(=O)CI [Iodoacetamide]
- scaled lipid accumulation score [1]: inactive: 0.037

SMILES: CCCCC[C@@H](/C=C/C=C\C/C=C\C/C=C\CCCC(=O)O)OO
- scaled lipid accumulation score (library stock concentration: 100 uM): inactive: ≤ -0.01

SMILES: NC(=O)c1cc(N2CC2)c([N+](=O)[O-])cc1[N+](=O)[O-]
- scaled lipid accumulation score [1]: inactive: ≤ 0

SMILES: Cn1cc(C2=C(c3cn(C4CCN(Cc5ccccn5)CC4)c4ccccc34)C(=O)NC2=O)c2ccccc21
- scaled lipid accumulation score (library stock concentration: 80 uM): inactive: ≤ 0
- scaled lipid accumulation score (library stock concentration: 400 uM): inactive: ≤ 0
- scaled lipid accumulation score (library stock concentration: 2 mM): inactive: ≤ 0
- scaled lipid accumulation score [2]: inactive: ≤ 0
- scaled lipid accumulation score [1]: inactive: 0.048 and inactive: ≤ 0

SMILES: CP(=O)(O)C1=CCNCC1
- scaled lipid accumulation score [1]: inactive: ≤ 0

SMILES: C[C@@H]1O[C@H](C[N+](C)(C)C)C[C@H]1O [(?)-Muscarine chloride]
- scaled lipid accumulation score [1]: inactive: 0.141

SMILES: O=c1n(Cl)c(=O)n(Cl)c(=O)n1Cl
- scaled lipid accumulation score [1]: inactive: ≤ 0

SMILES: C=CCN1CC[C@]23c4c5ccc(O)c4O[C@H]2C(=O)CC[C@@]3(O)[C@H]1C5 [Naloxone hydrochloride]
- scaled lipid accumulation score: inactive: 0.021
- scaled lipid accumulation score [1]: inactive: ≤ 0 and inactive: ≤ -0.052

SMILES: C=CCN1CC[C@]23c4c5ccc(O)c4O[C@H]2C(=O)CC[C@@]3(O)[C@H]1C5
- scaled lipid accumulation score [1]: inactive: ≤ 0

SMILES: C=CCN1CC[C@]23c4c5ccc(O)c4O[C@H]2C(=O)CC[C@@]3(O)[C@H]1C5 [Naloxone HCl]
- scaled lipid accumulation score (library stock concentration: 6.1 mM): inactive: ≤ 0

SMILES: C[C@@H]1CC[C@@]2(OC1)O[C@H]1C[C@H]3[C@@H]4CC=C5C[C@@H](O[C@@H]6O[C@H](CO)[C@@H](O[C@@H]7O[C@@H](C)[C@H](O)[C@@H](O)[C@H]7O)[C@H](O)[C@H]6O[C@@H]6O[C@@H](C)[C@H](O)[C@@H](O)[C@H]6O)CC[C@]5(C)[C@H]4CC[C@]3(C)[C@H]1[C@@H]2C [Dioscin]
- scaled lipid accumulation score [2]: inactive: 0.577
- scaled lipid accumulation score [1]: inactive: 0.255

SMILES: CCCCCCCC/C=C\CCCCCCCC(=O)Nc1ccccc1 [Oleyl Anilide]
- scaled lipid accumulation score [3]: inactive: 0.024

SMILES: c1ccc(Cn2ccnc2)cc1
- scaled lipid accumulation score [1]: inactive: ≤ 0

SMILES: C=CCc1ccc2c(c1)OCO2 [Safrole]
- scaled lipid accumulation score [1]: inactive: 0.109

SMILES: CCCC(C)C1(CC)C(=O)NC(=O)NC1=O (stereo unspecified) [Pentobarbital]
- scaled lipid accumulation score (library stock concentration: 8.8 mM): inactive: ≤ 0

SMILES: C[C@]12C[C@H]3S[C@H]3C[C@@H]1CC[C@@H]1[C@@H]2CC[C@]2(C)[C@@H](O)CC[C@@H]12 [Epitiostanol]
- scaled lipid accumulation score: inactive: ≤ 0

SMILES: COP(=O)(OC)C(O)C(Cl)(Cl)Cl (stereo unspecified) [Trichlorfon]
- scaled lipid accumulation score: inactive: ≤ 0

SMILES: CC(N)Cc1c[nH]c2ccc(OCc3cccs3)cc12.Cl (stereo unspecified)
- scaled lipid accumulation score [1]: active: 1.18

SMILES: CCCCC/C=C\C/C=C\C/C=C\C/C=C\CCCC(=O)Nc1cccc([N+](=O)[O-])c1 [Arachidonoyl m-Nitroaniline]
- scaled lipid accumulation score [3]: inactive: ≤ 0

SMILES: O=C1C=CC[C@@H]2[C@H]3CCCN4CCC[C@@H](CN12)[C@@H]34 [Sophocarpine]
- scaled lipid accumulation score [2]: inactive: ≤ 0
- scaled lipid accumulation score [1]: inactive: ≤ 0

SMILES: C[C@]12CCC(=O)C[C@@H]1CC[C@@H]1[C@@H]2CC[C@]2(C)C(=O)CC[C@@H]12 [5alpha-androstan-3,17-dione]
- scaled lipid accumulation score [1]: inactive: ≤ -0.027

SMILES: CC(=O)O[C@H]1C[C@@H]2CC[C@@H]3[C@H](CC[C@@]4(C)[C@H]3C[C@H]([N+]3(C)CCCCC3)[C@@H]4OC(C)=O)[C@@]2(C)C[C@@H]1[N+]1(C)CCCCC1 [Pancuronium]
- scaled lipid accumulation score [1]: inactive: ≤ 0

SMILES: CC(=O)O[C@H]1C[C@@H]2CC[C@@H]3[C@H](CC[C@@]4(C)[C@H]3C[C@H]([N+]3(C)CCCCC3)[C@@H]4OC(C)=O)[C@@]2(C)C[C@@H]1[N+]1(C)CCCCC1 [Pancuronium bromide]
- scaled lipid accumulation score: inactive: ≤ 0
- scaled lipid accumulation score [1]: inactive: 0.086

SMILES: CC(=O)O[C@H]1C[C@@H]2CC[C@@H]3[C@H](CC[C@@]4(C)[C@H]3C[C@H]([N+]3(C)CCCCC3)[C@@H]4OC(C)=O)[C@@]2(C)C[C@@H]1[N+]1(C)CCCCC1 [Pancuronium dibromide]
- scaled lipid accumulation score [2]: inactive: ≤ 0
- scaled lipid accumulation score [1]: inactive: ≤ 0

SMILES: COC(=O)[C@@H](N)CCCNC(=N)N[N+](=O)[O-] [L-NAME (hydrochloride)]
- scaled lipid accumulation score [3]: inactive: ≤ 0

SMILES: COC(=O)[C@@H](N)CCCNC(=N)N[N+](=O)[O-] [L-NAME hydrochloride]
- scaled lipid accumulation score [1]: inactive: ≤ 0

SMILES: COC(=O)[C@@H](N)CCCNC(=N)N[N+](=O)[O-] [NG-Nitro-L-arginine methyl ester hydrochloride]
- scaled lipid accumulation score [1]: inactive: 0.047

SMILES: COC(=O)[C@@H](N)CCCNC(=N)N[N+](=O)[O-]
- scaled lipid accumulation score (library stock concentration: 21.4 mM): inactive: ≤ -0.012
